Tumor-to-blood, Tumor-to-kidney and Tumor-to-liver data for 4 compounds are collected here from article PMC5247395 (EJNMMI Research, 2017).

In the data set the test system is PC-3 PIP/flu tumor-bearing mice. The data set can be described thus: Biodistribution in PC-3 PIP/flu tumor-bearing mice. The note with it: ratio for PC-3 PIP tumor.

Molecules are shown by their SMILES. Values joined by “and” are separate entries in the source; they are usually repeats but may differ in a detail not shown here. Identical values can stand only once.

For `O=C([O-])CN1CCN(CC(=O)[O-])CCN(CC(=O)NCC2CCC(C(=O)NC(Cc3ccc4ccccc4c3)C(=O)NCCCCC(NC(=O)NC(CCC(=O)O)C(=O)O)C(=O)O)CC2)CCN(CC(=O)[O-])CC1.[44Sc+3]` (stereo not shown) [^44Sc-PSMA-617], the Tumor-to-blood was 5.38 ± 0.90 (15 min p.i.); 17.6 ± 1.23 (30 min p.i.); >200 and 227 ± 63.4 (2 h p.i.); 194 ± 21.0 (6 h p.i.). In addition, the Tumor-to-kidney by setting is: (15 min p.i.) 0.97 ± 0.21; (30 min p.i.) 1.60 ± 0.22; (2 h p.i.) 7.98 ± 1.71; (6 h p.i.) 17.0 ± 2.58. The Tumor-to-liver reads like this: (15 min p.i.) 18.8 ± 5.02; (30 min p.i.) 55.6 ± 7.36; (2 h p.i.) >200 and 216 ± 33.4; (6 h p.i.) 167 ± 32.5.
In the case of `O=C([O-])CN(CCN(CC(=O)[O-])Cc1cc(CCC(=O)NCCCCCC(=O)NCCCC[C@H](NC(=O)N[C@@H](CCC(=O)O)C(=O)O)C(=O)O)ccc1[O-])Cc1cc(CCC(=O)O)ccc1[O-].[68Ga+3]` [^68Ga-PSMA-11], where the note is “15 min p.i.”, the Tumor-to-blood amounted to 6.10 ± 1.84, the Tumor-to-kidney stood at 0.41 ± 0.14 and the Tumor-to-liver was found to be 15.3 ± 3.96. Moreover, where the note is “30 min p.i.”, the Tumor-to-blood was found to be 20.5 ± 6.40, the Tumor-to-kidney worked out at 0.58 ± 0.10 and the Tumor-to-liver is reported as 31.7 ± 2.48. Under “2 h p.i.”, the Tumor-to-kidney is 0.69 ± 0.12 and the Tumor-to-liver is reported as 71.3 ± 7.48.
As for `O=C([O-])CN1CCN(CC(=O)[O-])CCN(CC(=O)NCC2CCC(C(=O)NC(Cc3ccc4ccccc4c3)C(=O)NCCCCC(NC(=O)NC(CCC(=O)O)C(=O)O)C(=O)O)CC2)CCN(CC(=O)[O-])CC1.[68Ga+3]` (stereo not shown) [^68Ga-PSMA-617], the Tumor-to-blood is, setting by setting: (15 min p.i.) 4.15 ± 0.24; (30 min p.i.) 16.9 ± 4.22; (2 h p.i.) >200 and 387 ± 98.1. Further, the Tumor-to-kidney came out at 1.26 ± 0.25 (15 min p.i.), 3.62 ± 0.81 (30 min p.i.) and 15.9 ± 3.26 (2 h p.i.). The Tumor-to-liver by setting is: (15 min p.i.) 6.02 ± 0.59; (30 min p.i.) 19.0 ± 2.32; (2 h p.i.) 35.2 ± 9.94.
For `O=C([O-])CN1CCN(CC(=O)[O-])CCN(CC(=O)NCC2CCC(C(=O)N[C@@H](Cc3ccc4ccccc4c3)C(=O)NCCCC[C@H](NC(=O)N[C@@H](CCC(=O)O)C(=O)O)C(=O)O)CC2)CCN(CC(=O)[O-])CC1.[177Lu+3]` (stereo partly shown) [^177Lu-PSMA-617], the Tumor-to-blood is 4.45 ± 0.66 (15 min p.i.), 16.0 ± 3.52 (30 min p.i.) and 2988 ± 351 (6 h p.i.). Besides, the Tumor-to-kidney amounted to 1.06 ± 0.14 (15 min p.i.), 2.09 ± 0.24 (30 min p.i.), 11.6 ± 0.87 (2 h p.i.) and 22.5 ± 1.79 (6 h p.i.). For the same compound, the Tumor-to-liver runs as follows: (15 min p.i.) 20.4 ± 5.48; (30 min p.i.) 53.1 ± 6.68; (2 h p.i.) >200 and 346 ± 22.7; (6 h p.i.) 617 ± 66.2.
